According to PubChem BioAssay AID504466 (National Center for Advancing Translational Sciences (NCATS), 2011):
The campaign covered roughly 330,000 compounds. About 4,200 (1.3%) were called active. This list was built around the results that the source calls inconclusive (neither active nor inactive); the mix of calls is not that of the screen. The call rests on the fitted dose curve; in most records, active means well fitted activation curve with a large enough effect; inconclusive means small, poorly fitted or top-dose-only effect; inactive means no such curve, though single readings can be large or run the other way. Potencies beside an inconclusive call are fits to weak or partial responses and may not hold up.

assay: qHTS screen for small molecules that induce genotoxicity in human embryonic kidney (HEK293T) cells expressing luciferase-tagged ELG1; details: HEK293T ELG1-luciferase reporter, luminescence, 16 h; series mostly up to 46 µM; further: nearly all actives have a fitted effect of over 60% in size
Method in brief: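 HEK293T cells expressing luciferase-tagged ELG1 were exposed to compound or DMSO vehicle for 16 hr at 37 °C and 5% CO2. Luciferase activity was then measured with ONE-Glo after 30 min at room temperature.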
Potency means the concentration at half of the fitted maximal effect; tags describe the fitted curve by direction and shape.

SMILES	Potency
CC(C)(C)c1cc(NC(=O)c2ccco2)no1	active: 1.3 µM
COCCNc1oc(-c2ccccc2Cl)nc1C#N	inactive
Brc1ccc(CSc2nnc(-c3ccccn3)n2Cc2ccco2)cc1	inactive
COC(=O)c1sccc1NC(=O)/C=C/c1ccc(Cl)cc1	inconclusive: 14.6 µM [activator, partial curve, poor fit]
C=CCNC(=O)c1ccc(CSc2nc3ccccc3s2)cc1	inconclusive: 29.1 µM [activator, partial curve, poor fit]
COc1ccccc1-c1ccc(C(=O)O)o1	inconclusive: 18.4 µM [activator, single point]
Cc1cc(-n2c(C)cc(C(=O)COc3ccc4ccc(=O)oc4c3)c2C)no1	inactive
Cc1nn(-c2ccccc2)c(Cl)c1/C=N/NC(=O)c1ccccc1F	inconclusive: 18.3 µM [activator, partial curve]
CCOC(=O)c1cccc(NC(=O)c2cccs2)c1	inconclusive: 16.4 µM [activator, partial curve, poor fit]
Cc1ccc(Cn2c(C)nc3c(c2=O)c2nc4ccccc4nc2n3Cc2ccco2)cc1	inconclusive: 20.6 µM [activator, single point]
CC(C)(C)C(=O)N1CCc2cc(-c3csc(N)n3)ccc21	inconclusive: 0.231 µM [activator, partial curve]
CCCCC(=O)Nc1ccc2c3c(cccc13)C(=O)N2CC	inconclusive: 25.9 µM [activator, partial curve, poor fit]
O=C(c1ccc2c(=O)n(-c3ccccc3)c(=S)[nH]c2c1)N1CCN(c2ccccc2)CC1	inactive
COc1ccc(NC(=O)CSc2ncc(-c3ccc(F)cc3)n2Cc2ccco2)cc1	inactive
CN1CCN(c2ccc(NC(=O)c3ccccc3Br)cc2)CC1	active: 14.6 µM
O=C(Cc1ccccc1)Nc1ccc(NC(=O)c2ccco2)cc1	inconclusive: 5.8 µM [activator, partial curve, poor fit]
COc1ccc(/C=N/NC(=O)Cn2nnc3ccccc32)cc1OC	inconclusive: 23.1 µM [activator, partial curve, poor fit]
CCc1sc(C(=O)Nc2nc(C)cs2)cc1C	inconclusive: 2.59 µM [activator, single point]
Cc1cccc(N(O)C(=O)Nc2cccc(Cl)c2)c1	inconclusive: 16.4 µM [activator, partial curve, poor fit]
CC1=Nc2ccccc2N=C(N)C1c1ccccc1 (configuration not stated)	inconclusive: 18.3 µM [activator, single point]
N#C/C(=C\c1ccncc1)c1nc2c(s1)CCCC2	inconclusive: 7.3 µM [activator, partial curve, poor fit]
CC(=C/c1ccccc1)/C=N/NC(=O)c1cc(C)oc1C	inconclusive: 8.2 µM [activator, partial curve, poor fit]
Cc1ccc(C(=O)NNC(=O)c2ccc3c(c2)OCCO3)cc1	inconclusive: 14.6 µM [activator, partial curve]
O=C1COc2ccc(NC(=O)c3ccccc3C(=O)O)cc2N1	inactive

SMILES	Potency
CC(C)c1ccc(Nc2nnc(SCC(=O)c3nnc(-c4ccccc4)o3)s2)cc1	inconclusive: 1.84 µM [activator, full curve, poor fit]
CCCCCC(=O)Nc1cccc(C2=NOC3(C2)C[C@@H](C(N)=O)N(C(=O)Cc2ccc([N+](=O)[O-])cc2)C3)c1 (some centres not stated)	inactive
COCCN(C(=O)c1ccccc1)c1nc(-c2ccc(OC)cc2)cs1	inactive
NC(=NCCCCCCN=C(N)/N=C(\N)Nc1ccc(Cl)cc1)/N=C(\N)Nc1ccc(Cl)cc1	inconclusive: 18.3 µM [activator, single point]
COc1cc(CCCN2CCNC[C@@H]2Cc2ccc(O)cc2)cc(OC)c1OC	inactive
CCCCN(C(=O)NC(=O)Nc1nc2ccc(OC)cc2s1)S(C)(=O)=O	active: 8.2 µM
Clc1ccc(-c2nc3nc4ccccc4nc3n2Cc2ccco2)cc1	active: 23.1 µM
Cc1c(C(=O)OC2CCC(C)CC2)[nH]c2c1C(=O)CCC2 (configuration not stated)	active: 2.59 µM
CC(C)CC(=O)Nc1ccc2c(c1)oc1ccccc12	inactive
Cc1ccc(C(=O)Nc2cccnc2Cl)cc1Cl	active: 18.3 µM
CCOc1ccc(N(CC(=O)NCCSCc2ccccc2)S(C)(=O)=O)cc1	inactive
COc1ccc(NC(=O)c2cc3ccccc3o2)cc1S(=O)(=O)N1CCCCC1	inactive
Cc1nn2c(-c3ccccc3)ccnc2c1-c1ccccc1	inconclusive: 10.3 µM [activator, partial curve]
N=c1oc2cc(O)ccc2cc1C(=O)Nc1nc2ccccc2s1	active: 6.51 µM
O=C(CN1CCN(c2ccccn2)CC1)Nc1ccc2ccccc2c1	inconclusive: 29.1 µM [activator, partial curve, poor fit]
COc1cccc(-c2nnc(NC(=O)C3CCCCC3)o2)c1	inconclusive: 0.731 µM [activator, full curve, poor fit]
O=c1[nH]c2ccccc2cc1-c1nnn(-c2ccc(F)cc2)n1	inconclusive: 14.6 µM [activator, partial curve]
COc1ccc(/C=C2\COc3ccccc3C2=O)c(OC)c1	inconclusive: 20.6 µM [activator, single point]
COc1cc(OC)c(-c2nn3c(-c4ccncc4)nnc3s2)cc1OC	inconclusive: 16.4 µM [activator, partial curve, poor fit]
O=C(Nc1nnc(C2CCCCC2)s1)c1cccs1	inconclusive: 5.62 µM [activator, partial curve, poor fit]
COc1ccc2[nH]c3c(c2c1)CCn1c-3nc2ccccc2c1=O	inconclusive: 0.447 µM [activator, full curve, poor fit]
COc1cc(C(=O)OCC(=O)Nc2ccc(SC(F)F)cc2)cc(OC)c1OC	inactive
S=C(N/N=C/c1ccc(Br)cc1)N1CCCCC1	inconclusive: 14.6 µM [activator, partial curve]
